Hit rate of the full screen: of about 310,000 compounds, about 14,000 (4.5%) showed an effect of 50% or more. The effect is printed as a negative number. The list shows a part of the results.
Each molecule was assayed against human ether-à-go-go-related gene (hERG) potassium channel (human, UniProt Q12809) (assay: primary screen, population patch clamp on CHO cells stably expressing hERG).
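Note: peak tail current of the secondary pulse compared with the same well before compound.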

human ether-à-go-go-related gene (hERG) potassium channel, sequence (Q12809 whole entry, looked up): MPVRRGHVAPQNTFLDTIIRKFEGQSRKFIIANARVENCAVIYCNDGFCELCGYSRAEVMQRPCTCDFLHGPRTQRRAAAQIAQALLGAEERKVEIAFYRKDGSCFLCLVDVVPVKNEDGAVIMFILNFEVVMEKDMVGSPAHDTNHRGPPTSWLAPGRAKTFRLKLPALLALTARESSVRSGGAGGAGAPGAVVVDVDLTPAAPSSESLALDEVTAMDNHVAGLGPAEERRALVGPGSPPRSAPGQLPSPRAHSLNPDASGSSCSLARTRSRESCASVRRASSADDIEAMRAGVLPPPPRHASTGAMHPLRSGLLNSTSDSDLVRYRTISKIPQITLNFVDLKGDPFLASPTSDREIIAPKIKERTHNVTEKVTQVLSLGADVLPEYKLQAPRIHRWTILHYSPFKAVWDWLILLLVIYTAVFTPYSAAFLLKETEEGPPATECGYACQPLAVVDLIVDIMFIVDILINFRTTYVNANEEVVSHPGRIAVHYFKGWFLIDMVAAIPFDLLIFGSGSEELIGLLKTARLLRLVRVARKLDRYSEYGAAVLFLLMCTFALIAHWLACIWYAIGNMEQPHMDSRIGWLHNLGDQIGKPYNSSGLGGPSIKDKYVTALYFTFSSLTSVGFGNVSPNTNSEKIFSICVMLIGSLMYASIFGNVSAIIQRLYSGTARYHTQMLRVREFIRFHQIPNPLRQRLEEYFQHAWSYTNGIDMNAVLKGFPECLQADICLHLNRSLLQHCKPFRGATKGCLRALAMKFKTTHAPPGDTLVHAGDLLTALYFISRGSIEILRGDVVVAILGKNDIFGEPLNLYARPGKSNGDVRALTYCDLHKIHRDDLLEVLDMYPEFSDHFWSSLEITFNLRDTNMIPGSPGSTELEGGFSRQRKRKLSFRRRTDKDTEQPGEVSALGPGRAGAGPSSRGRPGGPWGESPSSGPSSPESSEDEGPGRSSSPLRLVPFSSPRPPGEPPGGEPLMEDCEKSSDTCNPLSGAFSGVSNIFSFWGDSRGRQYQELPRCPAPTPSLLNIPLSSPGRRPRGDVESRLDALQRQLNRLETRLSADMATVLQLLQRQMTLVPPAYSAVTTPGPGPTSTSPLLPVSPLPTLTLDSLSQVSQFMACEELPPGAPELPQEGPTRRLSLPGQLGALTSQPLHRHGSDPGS

Going from `COc1ccc([N+](=O)[O-])cc1COc1ccc2c(-c3ccccc3)cc(=O)oc2c1` to `COc1cc2c(cc1NC(=S)Nc1cccc3ccccc13)oc1ccccc12`, the “hERG current change (%, negative = inhibition) at 10uM” value falls from 36.7% to 8.07%.

Going from `Cc1ccc(S(=O)(=O)Cc2ccc(C(=O)N3CCN(c4ccc(F)cc4)CC3)o2)cc1` to `CC(=O)Nc1ccc(NC(=O)COc2ccc(S(=O)(=O)N3CCCC3)cc2)cc1`, the “hERG current change (%, negative = inhibition) at 10uM” value rises from -69.5% to 11%.

Compared with `N#CCCN1CCN(S(=O)(=O)c2ccc(C#N)cc2)CC1`, `O=C(CCc1ccc(S(=O)(=O)N2CCOCC2)cc1)OCc1nc2ccccc2s1` is lower in “hERG current change (%, negative = inhibition) at 10uM” value: -10.6% for the first, -19.7% for the second.

Compared with `CCC/C(=N\NC(=O)CNC(=O)c1ccc(Cl)cc1)c1ccccc1`, `CCn1c(=O)c(C(=O)NNC(=O)c2ccccc2)c(O)c2ccccc21` is higher in “hERG current change (%, negative = inhibition) at 10uM” value: -1.56% for the first, 11.9% for the second.

Going from `Cc1nnc(NC(=O)c2cc(S(=O)(=O)N3CCCCC3)ccc2Cl)s1` to `CN1CCN(c2ccc(S(=O)(=O)N3CCCCC3)cc2NC(=O)/C=C/c2ccc(OC(F)F)cc2)CC1`, the “hERG current change (%, negative = inhibition) at 10uM” value falls from 14.6% to -39.2%.

Going from `Cc1nc(NCCN2CCOCC2)c2oc3ccccc3c2n1.Cl` to `N=c1c(C(=O)NCCN2CCOCC2)cc2c(=O)n3ccccc3nc2n1CCCN1CCOCC1`, the “hERG current change (%, negative = inhibition) at 10uM” value rises from -31.5% to -4.43%.

First: COc1ccc(/C=N/NC(N)=S)cc1
Second: COc1ccccc1/C=N/NC(=S)NCc1ccco1
The “hERG current change (%, negative = inhibition) at 10uM” value of the first is higher: -0.485% for the first, -7.47% for the second.

Going from `CC1(C)CC(=O)C(C=Nc2ccccc2)=C(O)C1` to `CC(=O)c1c(N=CN(C)C)nc(C)nc1-c1ccccc1`, the “hERG current change (%, negative = inhibition) at 10uM” value rises from -8.78% to 2.08%.

Going from `O=C(Cc1nn[nH]n1)c1ccccc1O` to `c1ccc(-c2ccc3nnnn3n2)cc1`, the “hERG current change (%, negative = inhibition) at 10uM” value falls from 13.7% to 5.72%.

Going from `CN(C)CC/C=C1\c2cc(Cl)ccc2Sc2cc(F)c(F)cc21.Cl` to `O=C(CN1c2ccccc2Sc2ccccc21)NNC(=O)Nc1ccc(Cl)c(Cl)c1`, the “hERG current change (%, negative = inhibition) at 10uM” value rises from 1.25% to 9.79%.

First: Cc1ccc(-c2n[nH]c(=S)n2/N=C/c2ccc(C)o2)cc1
Second: Cc1scc(-c2n[nH]c(=S)n2Cc2ccccc2)c1C
The “hERG current change (%, negative = inhibition) at 10uM” value of the first is higher: 8.53% for the first, 4.69% for the second.

Compared with `CCOC(=O)/C(=N/Nc1ccc(OC)cc1)N1CCCc2ccccc21`, `CCOC(=O)CNC(=O)CSc1nnc(-c2cccc(C)c2)n1-c1ccc(OC)cc1` is lower in “hERG current change (%, negative = inhibition) at 10uM” value: 0.0791% for the first, -62% for the second.

Compared with `CN(C(=O)COC(=O)c1ccc(S(=O)(=O)N2CCOCC2)cc1)C1CCCCC1`, `COC(=O)CN(C)C(=O)c1ccc(OC2CCN(S(=O)(=O)N(C)C)CC2)cc1` is higher in “hERG current change (%, negative = inhibition) at 10uM” value: -12.5% for the first, 3.7% for the second.

Compared with `O=[N+]([O-])c1ccc2ncnc(Nc3ccc4c(c3)OCCO4)c2c1`, `CCN1CCN(c2cc(C)c3cc(NC(=O)c4ccc(OC)c(OC)c4)ccc3n2)CC1` is lower in “hERG current change (%, negative = inhibition) at 10uM” value: 2.91% for the first, -46% for the second.

Going from `COc1cc(OC)nc(NC(=O)CCl)n1` to `COc1ccc(-n2c(Cc3cccn3C)nnc2SCC(=O)Nc2nccs2)cc1`, the “hERG current change (%, negative = inhibition) at 10uM” value falls from -3.8% to -9.82%.

Going from `O=C(C1=C(O)C(=O)N(CCN2CCOCC2)C1c1ccc(Cl)cc1)c1cc2ccccc2o1` (centres unmarked) to `Cl.O=C(COc1ccccc1Cc1ccccc1)NCCCN1CCOCC1`, the “hERG current change (%, negative = inhibition) at 10uM” value falls from 10.3% to -32.1%.

Compared with `O=C(/C=C(\O)c1ccccc1)C(=O)NNC(=O)c1ccccc1`, `CC(C)c1ccccc1NC(=O)c1cccc(NC(=O)c2ccccc2)c1` is lower in “hERG current change (%, negative = inhibition) at 10uM” value: 8.86% for the first, -17.2% for the second.

Compared with `CC1CCCC(C)N1/N=C/c1cccc([N+](=O)[O-])c1` (centres unmarked), `COc1cc(C(=O)OC(C)CN2C(C)CCCC2C)cc(OC)c1OC.Cl` (centres unmarked) is lower in “hERG current change (%, negative = inhibition) at 10uM” value: 17.6% for the first, -50.2% for the second.

First: CCc1ccccc1NC(=S)NNC(=O)c1ccccc1Cl
Second: Cc1cc(C)nc(N/C(=N\S(=O)(=O)Cc2ccccc2)Nc2cccc(Cl)c2C)n1
The “hERG current change (%, negative = inhibition) at 10uM” value of the first is higher: 12.3% for the first, -3.72% for the second.

First: CC(C)OCCCn1c(=N)c(S(=O)(=O)c2ccccc2)cc2c(=O)n3ccccc3nc21
Second: CC(C)OC(=O)/C(=C/c1ccc2c(c1)c1ccccc1n2C)NC(=O)c1ccccc1
The “hERG current change (%, negative = inhibition) at 10uM” value of the first is lower: -43.6% for the first, -1.72% for the second.

First: CCC(C)NC(=O)c1cc(CC(C)C)on1 (centres unmarked)
Second: Cc1nc2cc(OCc3cc(C(=O)NC(C)c4cn(C)nc4C)no3)ccc2s1 (centres unmarked)
The “hERG current change (%, negative = inhibition) at 10uM” value of the first is higher: 8.94% for the first, 4.16% for the second.

First: CCCCCCCC[n+]1cccc2c3ccccc3ccc21.[I-]
Second: CCCCN(CC)CCCNC(=O)c1cn(-c2ccc(OC)cc2)c(=O)c2ccccc12
The “hERG current change (%, negative = inhibition) at 10uM” value of the first is lower: -84.3% for the first, -56.5% for the second.

Compared with `O=C(CF)NC(NC(=S)Nc1ccccc1O)C(Cl)(Cl)Cl` (centres unmarked), `CNC(=O)CC1C(=O)N(C)C(=S)N1NC(=O)c1ccccc1` (centres unmarked) is lower in “hERG current change (%, negative = inhibition) at 10uM” value: 34.7% for the first, 9.36% for the second.

Compared with `CN1CCc2ccccc2Cc2[nH]c3ccccc3c2CC1`, `CC(C)[C@H](NC(=O)c1ccccc1)C(=O)OCC(=O)N1CCc2ccccc2C1` is higher in “hERG current change (%, negative = inhibition) at 10uM” value: -23.5% for the first, -11.5% for the second.

Going from `CCOC(=O)C1(Cc2ccccc2)CCN(Cc2cnn(-c3ccccc3)c2)CC1` to `c1ccc(SCc2cn(C[C@H]3CC[C@@H]([C@@H]4CC[C@H](Cn5cc(CSc6ccccc6)nn5)O4)O3)nn2)cc1`, the “hERG current change (%, negative = inhibition) at 10uM” value rises from -81.4% to -62.1%.

First: CC(=O)Nc1cc(NC(C)=O)cc(C(=O)OCC(=O)c2ccc3c(c2)NC(=O)CO3)c1
Second: CCc1nc2ccccc2c(C(=O)OCC(=O)NC(=O)c2cccn2C)c1C
The “hERG current change (%, negative = inhibition) at 10uM” value of the first is lower: 3.64% for the first, 7.02% for the second.

Going from `CCOC(=O)N1CCN(C(=O)CCc2cc(OC)c(OC)c(OC)c2)CC1` to `COc1ccccc1C(=O)NC(=O)Nc1c(C)cc(C)cc1C`, the “hERG current change (%, negative = inhibition) at 10uM” value falls from 9.89% to -2.82%.

Going from `Cc1cccc(OCC(=O)OCC(=O)c2c(N)n(C)c(=O)n(C)c2=O)c1` to `CCCn1c(=O)c(F)cn(Cc2ccc(OC)c([N+](=O)[O-])c2)c1=O`, the “hERG current change (%, negative = inhibition) at 10uM” value rises from -13.1% to -11.8%.

Going from `Cc1nn(CCC(=O)O)c2nc(-c3cccnc3)cc(C(F)(F)F)c12.Cl` to `CCOc1ccccc1CNC(=O)Cn1nc(C)c2c(C)n(-c3ccc(C)cc3)nc2c1=O`, the “hERG current change (%, negative = inhibition) at 10uM” value falls from 14.2% to -4.68%.

First: CC(C)C(NC(=O)C1CCCCC1)C(=O)Nc1ccccn1 (centres unmarked)
Second: CC(C)[C@H](NC(=O)[C@@H]1Cc2ccccc2CN1C(=O)OC(C)(C)C)C(=O)NCC1CCC(C(=O)O)CC1 (some centres unmarked)
The “hERG current change (%, negative = inhibition) at 10uM” value of the first is higher: 9.08% for the first, 8.54% for the second.

First: CC(C)N=C(NC#N)SCc1ccccc1F
Second: CCc1nnc(NC(=O)CSc2nnc(C(C)NC(=O)c3ccccc3F)n2C)s1 (centres unmarked)
The “hERG current change (%, negative = inhibition) at 10uM” value of the first is lower: 3.93% for the first, 9.22% for the second.

Going from `NC(=O)CC(NC(=O)Cc1cccc2ccccc12)c1ccc(NCCN2CCCCC2)c([N+](=O)[O-])c1` (centres unmarked) to `Cc1ccc2c(c1)N(C(=O)CCC(=O)NCc1ccccn1)CC(C)O2` (centres unmarked), the “hERG current change (%, negative = inhibition) at 10uM” value falls from 7.38% to -7.23%.

Going from `CN(C(=O)COc1ccccc1)c1nnc(C23CC4CC(CC(C4)C2)C3)s1` to `COC(=O)c1ccc(CNC(=O)C23CC4CC(CC(C4)C2)C3)cc1`, the “hERG current change (%, negative = inhibition) at 10uM” value falls from 5.79% to -8.56%.

Compared with `CCOc1ccc(OCC)c(Nc2cc(C)nc3nc(C)nn23)c1`, `COc1cnc(-c2ccccn2)nc1Oc1ccc(Cl)c2ccccc12` is higher in “hERG current change (%, negative = inhibition) at 10uM” value: -23.8% for the first, -12.7% for the second.

First: Cc1nonc1OCCNCCNc1ccccc1[N+](=O)[O-]
Second: COc1cccc(-c2c(C(=O)N/N=C(\C)c3ccco3)nnn2-c2nonc2N)c1
The “hERG current change (%, negative = inhibition) at 10uM” value of the first is lower: -23.4% for the first, 9.95% for the second.

Going from `CCOCCCN(C(=O)c1snc(C(N)=O)c1N)C(C(=O)NC1CCCC1)c1ccc(F)cc1` (centres unmarked) to `CCC(=O)NC(=S)Nc1ccc(S(=O)(=O)NC2CCCCC2)cc1`, the “hERG current change (%, negative = inhibition) at 10uM” value rises from -12% to -4.84%.

Compared with `O=Nc1c(-c2c(O)[nH]c3cc(Br)ccc23)[nH]c2ccccc12`, `Cc1ccc(S(=O)(=O)N2C(=O)/C(=C3\SC(=S)NC3=O)c3ccccc32)cc1` is lower in “hERG current change (%, negative = inhibition) at 10uM” value: 13% for the first, 10% for the second.

Compared with `Cn1cccc1/C=N/N1CCN(c2ccccc2)CC1`, `COc1ccc(C2=CC(=O)OC(C)(c3ccccc3)O2)cc1` (centres unmarked) is lower in “hERG current change (%, negative = inhibition) at 10uM” value: 16% for the first, -0.79% for the second.

First: CCCCNC(=S)N(C)N=C1CCC(c2ccccc2)CC1 (centres unmarked)
Second: CC1(C)CC(NC(=O)C(=O)NCCc2ccccc2)CC(C)(C)N1
The “hERG current change (%, negative = inhibition) at 10uM” value of the first is higher: 8.08% for the first, 1.81% for the second.

First: O=C1CCCCCN1C(=O)c1ccc(C(=O)N2CCCCCC2=O)cc1
Second: CC(C)(C)c1ccc(OC(=O)CN2C(=O)C3C4CCC(C4)C3C2=O)cc1 (centres unmarked)
The “hERG current change (%, negative = inhibition) at 10uM” value of the first is lower: -2.83% for the first, 4.44% for the second.

Compared with `Cc1ccc(-c2csc3nnc(SCC(=O)NCc4ccco4)n23)cc1`, `Cc1ccc2cccc(OCC(=O)N3CC(C)CC(C)C3)c2n1` (centres unmarked) is higher in “hERG current change (%, negative = inhibition) at 10uM” value: -17.6% for the first, 15.4% for the second.

Compared with `Nc1ccc(N=Nc2ccccc2Cl)c(N)n1`, `CC[C@@H](C)[C@H](NC(=O)CNC(=O)Cc1c(C)c2c(cc(C)c3c(C)coc32)oc1=O)C(=O)O` is lower in “hERG current change (%, negative = inhibition) at 10uM” value: 10.7% for the first, 0.0635% for the second.

First: CC(C)CCN(CCC(C)C)C(CO)(CO)CO
Second: CCCN(CCC)CC(O)CN1C(=O)N(CN2C(=O)N(CC(O)CN(CCC)CCC)C(=O)C2(C)C)C(C)(C)C1=O (centres unmarked)
The “hERG current change (%, negative = inhibition) at 10uM” value of the first is higher: 16.9% for the first, 14.4% for the second.

Source: publication PMC4336329 (PLoS ONE, 2015)
